The other results are listed elsewhere or left out.

The test system of one experiment is HSkMC. Briefly: cytotoxicity call (relative viability < 0.9). Conditions: 10 µM.
The test system of another experiment is HepG2. Briefly: cytotoxicity call (relative viability < 0.9). The note with it: 10 µM.
The subject of another experiment is S. aureus RN4220. Briefly: growth inhibition call (relative growth <= 0.2). Conditions: 50 µM.

Consider `C[C@H](CO)N1C[C@H](C)[C@@H](CN(C)Cc2ccc(C(=O)O)cc2)Oc2c(NC(=O)c3ccncc3)cccc2C1=O`, for which the cytotoxicity call with HSkMC and in the experiment on HepG2 was “inactive” each time. The growth inhibition call with S. aureus RN4220 is “inactive”.
Turning to `COc1ccc(CN(C)C[C@@H]2Oc3ccc(NC(=O)Nc4cccc5ccccc45)cc3C(=O)N([C@H](C)CO)C[C@@H]2C)cc1`, the cytotoxicity call with HSkMC and in the experiment on HepG2 was “inactive” each time. In addition, the growth inhibition call in the experiment with S. aureus RN4220 was “inactive”.
For the compound `CO[C@@H]1CN(C)C(=O)c2ccc(NC(=O)C3CCOCC3)cc2OC[C@@H](C)N(Cc2cccnc2)C[C@@H]1C`, the cytotoxicity call with HSkMC and in the experiment on HepG2 was “inactive” throughout. In addition, the growth inhibition call in the experiment with S. aureus RN4220 was “inactive”.
Regarding `O=C(c1ccc(F)cc1)C1CCN(CCn2c(=O)[nH]c3ccccc3c2=O)CC1`, the cytotoxicity call in the experiment with HSkMC and in the experiment with HepG2 was “inactive” in each case. Further, the growth inhibition call in the experiment with S. aureus RN4220 was “inactive”.
As for `C[C@H]1CCCCO[C@@H](CN(C)C(=O)c2ccncc2)[C@@H](C)CN([C@@H](C)CO)C(=O)c2cc(NS(C)(=O)=O)ccc2O1`, the cytotoxicity call in the experiment with HSkMC and in the experiment on HepG2 was “inactive” in each case. Moreover, the growth inhibition call in the experiment with S. aureus RN4220 is “inactive”.
Consider `COc1ccc(S(=O)(=O)N(C)C[C@@H]2Oc3ccc(NC(=O)Cn4cnnn4)cc3C(=O)N([C@@H](C)CO)C[C@@H]2C)cc1`, for which the cytotoxicity call in the experiment on HSkMC and in the experiment with HepG2 was “inactive” in each case. Further, in the experiment with S. aureus RN4220, the growth inhibition call was “inactive”.
With `Cc1cc(C(=O)Nc2cccc3c2O[C@@H](CN(C)C(=O)NC2CCCCC2)[C@@H](C)CN([C@H](C)CO)C3=O)n(C)n1`, the cytotoxicity call with HSkMC and in the experiment with HepG2 was “inactive” throughout. In the experiment with S. aureus RN4220, the growth inhibition call was “inactive”.
`C[C@@H]1CN([C@@H](C)CO)C(=O)Cc2cc(NS(=O)(=O)c3cccs3)ccc2O[C@H]1CN(C)Cc1ccc(Cl)c(Cl)c1`: the cytotoxicity call in the experiment with HSkMC and with HepG2 was “inactive” each time. In addition, the growth inhibition call with S. aureus RN4220 is “inactive”.
Take `C[C@@H]1CCCCO[C@H](CN(C)S(=O)(=O)c2ccc(F)cc2)[C@H](C)CN([C@@H](C)CO)C(=O)c2cc(NC(=O)Nc3ccc(C(F)(F)F)cc3)ccc2O1`: in the experiment on HSkMC, the cytotoxicity call was “inactive”. For the same compound, the cytotoxicity call in the experiment on HepG2 was “active”. The growth inhibition call in the experiment with S. aureus RN4220 was “inactive”.
For `CC(=O)OC[C@H]1O[C@@H](n2ccc(=O)[nH]c2=O)[C@H](OC(C)=O)[C@@H]1OC(C)=O`, the cytotoxicity call in the experiment on HSkMC and in the experiment with HepG2 was “inactive” each time. Also, in the experiment on S. aureus RN4220, the growth inhibition call is “inactive”.
As for `C[C@@H]1CN([C@H](C)CO)C(=O)c2cc(NC(=O)NC3CCCCC3)ccc2O[C@@H]1CN(C)Cc1ccc(C(=O)Nc2ccccc2N)cc1`, the cytotoxicity call in the experiment on HSkMC and in the experiment on HepG2 was “inactive” throughout. The growth inhibition call in the experiment with S. aureus RN4220 is “inactive”.
As for `O=C1O[C@@H](c2ccccc2)[C@@H](c2ccccc2)N2[C@@H](c3ccc(OCCO)cc3)[C@]3(C(=O)Nc4ccc(C#CC5=CCCCC5)cc43)[C@@H](C(=O)N3CCCCCCC3)[C@H]12`, the cytotoxicity call in the experiment on HSkMC was “inactive”. Moreover, the cytotoxicity call in the experiment with HepG2 was “active”. In the experiment on S. aureus RN4220, the growth inhibition call is “inactive”.
For `C[C@H](CO)N1C[C@H](C)[C@H](CN(C)S(=O)(=O)c2ccccc2)Oc2ccc(NC(=O)CCCN(C)C)cc2C1=O`, the cytotoxicity call in the experiment with HSkMC and in the experiment with HepG2 was “inactive” throughout. In addition, in the experiment on S. aureus RN4220, the growth inhibition call is “inactive”.
In the case of `COC(=O)[C@@H](NC(=O)c1cc(C)on1)C(C)C`, the cytotoxicity call in the experiment with HSkMC and in the experiment on HepG2 was “inactive” each time. In the experiment on S. aureus RN4220, the growth inhibition call was “inactive”.
Take `O=C1OCCC/C=C\[C@H]2O[C@@]34C=CCN(c5ccc6ccccc6c5)C(=O)[C@H]3N(CCCCCO)C(=O)[C@@H]4[C@@H]12`: the cytotoxicity call in the experiment on HSkMC and with HepG2 was “inactive” throughout. In the experiment on S. aureus RN4220, the growth inhibition call is “inactive”.
For `C[C@@H]1CN([C@@H](C)CO)C(=O)c2cc(NC(=O)CCC(F)(F)F)ccc2O[C@H]1CN(C)C(=O)Nc1ccc(C(F)(F)F)cc1`, the cytotoxicity call with HSkMC and in the experiment with HepG2 was “inactive” each time. For the same compound, the growth inhibition call in the experiment with S. aureus RN4220 is “inactive”.
In the case of `C[C@H](CO)N1C[C@H](C)[C@H](CN(C)Cc2ccc(C(=O)O)cc2)Oc2ccc(NS(C)(=O)=O)cc2CC1=O`, the cytotoxicity call with HSkMC and in the experiment on HepG2 was “inactive” in each case. Moreover, the growth inhibition call in the experiment with S. aureus RN4220 is “inactive”.
Take `C[C@@H]1CN([C@H](C)CO)C(=O)Cc2cc(NC(=O)Nc3cccc4ccccc34)ccc2O[C@@H]1CN(C)C(=O)Nc1ccc2c(c1)OCO2`: the cytotoxicity call in the experiment on HSkMC and in the experiment with HepG2 was “inactive” each time. Also, in the experiment with S. aureus RN4220, the growth inhibition call is “inactive”.
As for `COC(=O)c1ccc(O)c(/C=N/N(CCO)C2=NS(=O)(=O)c3ccccc32)c1`, the cytotoxicity call in the experiment on HSkMC and with HepG2 was “inactive” each time. For the same compound, the growth inhibition call in the experiment on S. aureus RN4220 was “inactive”.
As for `C[C@@H]1CN([C@@H](C)CO)C(=O)Cc2cc(NS(=O)(=O)c3cn(C)cn3)ccc2O[C@H]1CN(C)C(=O)Nc1ccc(F)cc1`, the cytotoxicity call in the experiment on HSkMC and in the experiment with HepG2 was “inactive” each time. Also, the growth inhibition call with S. aureus RN4220 was “inactive”.
As to `COc1cc(OC)cc(-c2ccc(-c3ccc([C@H]4CC(=O)C[C@@H](c5ccccc5)C45C(=O)OC(C)(C)OC5=O)cc3)cc2OC)c1`, the cytotoxicity call with HSkMC and with HepG2 was “inactive” each time. In addition, the growth inhibition call with S. aureus RN4220 is “inactive”.
On to `CC(C)NC(=O)Nc1cccc2c1O[C@H](CN(C)Cc1ccc(C(=O)O)cc1)[C@@H](C)CN([C@H](C)CO)C2=O`, for which the cytotoxicity call with HSkMC and in the experiment on HepG2 was “inactive” each time. In the experiment with S. aureus RN4220, the growth inhibition call is “inactive”.
`COc1ccc(NC(=O)N(C)C[C@@H]2Oc3ccc(NS(=O)(=O)c4c(C)noc4C)cc3CC(=O)N([C@@H](C)CO)C[C@H]2C)cc1`: the cytotoxicity call in the experiment with HSkMC and in the experiment on HepG2 was “inactive” in each case. For the same compound, the growth inhibition call in the experiment with S. aureus RN4220 is “inactive”.
For `C=C1CCC2C(C)(CO)C(O)CCC2(C)C1CC=C1C(=O)OCC1O` (stereo unspecified), the cytotoxicity call in the experiment with HSkMC is “inactive”. Moreover, the cytotoxicity call in the experiment on HepG2 was “active”. In the experiment on S. aureus RN4220, the growth inhibition call was “inactive”.
Take `COCC(=O)N1C[C@@H](C)[C@@H](OC)CN(C)C(=O)c2ccc(NC(=O)Nc3ccccc3)cc2OC[C@@H]1C`: the cytotoxicity call with HSkMC and with HepG2 was “inactive” throughout. The growth inhibition call in the experiment on S. aureus RN4220 is “inactive”.
In the case of `C/C=C/c1ccc2c(c1)O[C@@H](CN(C)S(=O)(=O)c1ccccc1)[C@@H](C)CN([C@@H](C)CO)S2(=O)=O`, the cytotoxicity call in the experiment with HSkMC and in the experiment with HepG2 was “inactive” in each case. The growth inhibition call in the experiment with S. aureus RN4220 was “inactive”.
On to `CCc1nc(N)nc(N)c1-c1ccc(Cl)cc1`, for which, in the experiment on HSkMC (human skeletal muscle cells), the cytotoxicity call was “inactive”. Further, in the experiment on HepG2, the cytotoxicity call is “active”. In addition, in the experiment with S. aureus RN4220, the growth inhibition call was “inactive”.

Values taken from the antibiotic and cytotoxicity screens of Wong et al. (2023).
